Test results taken from the supplement of paper PMC3334620.
Over roughly 33,000 sequences, “E-score (-0.5 to 0.5)” has its median near -0.01; the highest 2% begin near 0.26. Some of the results follow.

molecular target: Ste12 (UniProt P13574); experiment: PBM E-score (8-mer binding enrichment) (E-score (-0.5 to 0.5)); higher = stronger / more preferred TF binding; most listed sequences are background and not binding sites; conditions: protein concentration: 200 nM; construct: GST-DNA-binding domain
Procedure: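 Universal 'all 10-mer' protein binding microarrays (Agilent AMADID 015681) probed with GST-tagged S. cerevisiae TFs (full-length or DBD) made by in vitro transcription/translation (PURExpress), about 100-200 nM. Bound TF was detected with fluorescent anti-GST. Each ungapped 8-mer (which stands for itself and its reverse complement) is scored by the PBM enrichment score (E-score), a modified Wilcoxon-Mann-Whitney statistic from -0.5 to +0.5, computed with the Universal PBM Analysis Suite. Scale: above 0.35 generally sequence-specific binding.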

| Sequence | PBM E-score |
| --- | --- |
| CACGGCCA | -0.0769 |
| TGCGGTAA | 0.0996 |
| CCAGCAAG | -0.148 |
| GGAGGGGA | 0.366 |
| GCCAACAA | 0.0288 |
| AGCAGACC | -0.14 |
| AAGTCGTG | -0.111 |
| GACTAACA | 0.00808 |
| CCTCTGTA | -0.00872 |
| ACCGGTCC | -0.203 |
| ACAAAACG | 0.35 |
| AATAGTGT | 0.197 |
| CGGTCACA | -0.017 |
| GAGGTAGC | -0.239 |
| CAGCATCC | -0.161 |
| CCGAGGGC | -0.042 |
| GATCCTGA | 0.0809 |
| AACCTAGG | 0.18 |
| GCCGGGAA | -0.198 |
| AAACGACG | 0.197 |
| CGTGCTGA | -0.0362 |
| AGCCTTAC | -0.234 |
| TACCCCCA | -0.0324 |
| CAAGATCC | -0.119 |
| CACCCAAG | -0.101 |

| Sequence | PBM E-score |
| --- | --- |
| GAGAACTA | 0.065 |
| TCATAGCA | 0.119 |
| CTTGAATC | -0.0161 |
| CTGGAGGA | -0.0803 |
| CCGACGAG | 0.0607 |
| CGGGGCAG | -0.125 |
| CGCATTCA | 0.115 |
| GTCTCTTA | 0.0395 |
| CTAGTGGA | -0.0485 |
| AATGCTAC | -0.0559 |
| GAACCGCA | 0.126 |
| AACCTAGA | 0.167 |
| ATGACTGA | 0.0792 |
| AAGCAACG | 0.00339 |
| ATAGCGAC | -0.166 |
| ACATGTCT | 0.00606 |
| AAAGTGAG | 0.0652 |
| ATTCGTCC | 0.0908 |
| ATATACGA | -0.114 |
| CGCAGCGC | -0.129 |
| ACGAAACT | 0.127 |
| AGAGGGCA | -0.313 |
| GCGCCCAC | -0.0585 |
| AGCGCTGA | -0.0271 |
| CATGGCAG | 0.051 |

| Sequence | PBM E-score |
| --- | --- |
| GCTGATCA | 0.0563 |
| TATTGAAA | 0.304 |
| ATTCTTGA | 0.245 |
| ATTGCCCG | -0.0235 |
| ATGATCAA | 0.0665 |
| GGTCCTAC | -0.244 |
| ATCAACCA | 0.00511 |
| CCGAGCCG | 0.0994 |
| CCGGTTAC | 0.0536 |
| ATGTAGCC | -0.0235 |
| ACATTGGA | 0.0307 |
| ACGAAGCT | -0.00048 |
| AGAGCCGC | -0.107 |
| ATTTAATG | 0.272 |
| CGCGCCAA | 0.153 |
| TGAAGGAA | 0.0433 |
| ACGGGTCG | 0.16 |
| ATATCACC | 0.159 |
| CCGCAACA | 0.0766 |
| CGCATCAG | 0.0867 |
| CCGTTCTA | 0.0298 |
| TCTCCAAA | 0.043 |
| ACTCATTC | 0.119 |
| GTATATTA | 0.126 |
| CGCTATCC | 0.101 |

| Sequence | PBM E-score |
| --- | --- |
| AGGTCTAC | -0.142 |
| AAGTGCTG | -0.121 |
| AAAGGCTT | -0.0812 |
| AATGTTGA | 0.0935 |
| TGATAGAA | 0.0265 |
| GATTCTTA | 0.125 |
| ACTAGTCG | -0.0477 |
| CCCCTTAG | -0.173 |
| ACTCTAAG | -0.0984 |
| CGATTGCA | 0.0549 |
| CATCGAAG | -0.0352 |
| AATTCTGG | 0.039 |
| ATTCGTGC | 0.139 |
| AACAACCC | 0.181 |
| CTGTCCTA | -0.125 |
| GATTCGTA | 0.141 |
| CGTGTGAC | -0.0425 |
| GCCATCCA | -0.0231 |
| ATCTAGTA | 0.119 |
| GTCCGTAA | -0.0618 |
| CCGGAGAA | 0.118 |
| ATGCTATG | -0.0427 |
| GCTGTTCC | -0.121 |
| ATCAGGGA | -0.13 |
| AAGTTGGC | 0.0566 |

| Sequence | PBM E-score |
| --- | --- |
| CTTCCACC | -0.104 |
| CCGGTACG | -0.186 |
| AGGAGTAA | -0.0677 |
| GAGCTTAA | -0.128 |
| CCTTGGCG | -0.21 |
| CGAATAGA | -0.119 |
| ACTTATTA | 0.264 |
| ACCAGTTC | 0.0206 |
| CATAAGCG | -0.108 |
| GCACTCGA | -0.0774 |
| GGCTCGTA | 0.137 |
| AACCCTAC | -0.211 |
| ATTATACG | 0.181 |
| ATGGACCC | 0.00707 |
| GTTTACAA | 0.121 |
| CTCATTAC | 0.192 |
| TCCGCCAA | -0.107 |
| GGCATGCA | -0.22 |
| ACTTGCTG | -5e-05 |
| ACGGCCTC | -0.0585 |
| AACAGGGA | 0.158 |
| CGAATGCA | -0.138 |
| CATGTGTA | 0.0862 |
| AGGCCAAG | -0.126 |
| AGGAGCAC | 0.162 |

| Sequence | PBM E-score |
| --- | --- |
| ACATCTTG | -0.151 |
| AGATATTC | -0.0303 |
| AATAAACG | 0.0508 |
| CAGAGTGC | -0.0984 |
| AGCCTCTA | -0.0809 |
| CCCACCCC | 0.391 |
| ATCGGGAC | -0.0587 |
| CGTCTCCA | 0.173 |
| ACAAATAC | 0.189 |
| CAGCACCG | -0.0439 |
| AAGGGATC | -0.0841 |
| CGGAGATA | 0.146 |
| AGTCCAGA | -0.0802 |
| AGGAGCTA | -0.305 |
| ATCCCGTA | 0.0926 |
| GGTCACAC | -0.0972 |
| ACGACTTA | -0.201 |
| GACTGCAC | -0.128 |
| CTGAAGAC | 0.0622 |
| CCGAGTAA | -0.0532 |
| CTACCCTA | -0.0803 |
| CCAGACAA | -0.0391 |
| TACTACGA | -0.0361 |
| TAACCCGA | -0.0489 |
| TCCTCTAA | -0.0676 |

| Sequence | PBM E-score |
| --- | --- |
| TAGGGTGA | 0.141 |
| AGTCGAAC | -0.0912 |
| GAACATGC | -0.182 |
| CAATCGCC | -0.0487 |
| AGCGATCG | 0.00873 |
| ATCAGCAC | 0.0754 |
| AATTCAAT | 0.0899 |
| ACGAAATC | 0.0884 |
| GGGCGTCA | 0.175 |
| GCCGCCAA | -0.166 |
| GATTTCAC | 0.111 |
| CCCTCACC | 0.00597 |
| CGCAAATA | 0.0319 |
| ATACATAT | 0.294 |
| AATGTAAG | 0.11 |
| ACGCAGGA | -0.0172 |
| GATAATAC | 0.0884 |
| GCTTTAAA | 0.155 |
| AAGAGGGG | 0.0546 |
| CCGCGTCG | 0.121 |
| CCGACGCA | -0.132 |
| AACCGGAA | 0.144 |
